{"source": "PubChem BioAssay AID686979", "about": "(National Center for Advancing Translational Sciences (NCATS), 2013)", "note": "“And” between values parts separate entries of the source, which are not always exact repeats. Equal entries are not always repeated. Out of some 420,000 compounds screened, about 50,000 (12%) were called active. The inconclusive results got no clear call from the source; some entries with a clear call stand among them for comparison. The call rests on the fitted dose curve; in most records, active means well fitted inhibition curve with a large enough effect; inconclusive means small, poorly fitted or top-dose-only effect; inactive means flat fitted curve, though single readings scatter. Potencies of inconclusive entries are left out as doubtful fits. On the % scale 0 is the no-effect control and ±100 the full control effect; potency means the concentration at half of the fitted maximal effect; tags describe the fitted curve by direction and shape."}
{"experiment": "qHTS for Inhibitors of human tyrosyl-DNA phosphodiesterase 1 (TDP1): qHTS in cells in presence of CPT; further: nearly all actives have a fitted effect of over 55% in size", "settings": "chicken DT40 Tdp1-/-;hTDP1 cells + 20 nM CPT, ATP luminescence, 48 h; activity change, negative = growth inhibition: at 46.2 µM (top of the series)", "in_short": "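Chicken DT40 Tdp1-/- cells complemented with human TDP1, 400 cells/well, exposed to compounds plus 20 nM camptothecin for at least 48 h at 37 C; viability read as ATP content by CellTiter-Glo luminescence.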"}
{"smiles": "Cc1c(Nc2nc3ccccc3nc2N2CCN(c3ccccc3)CC2)c(=O)n(-c2ccccc2)n1C", "Potency": "active: 20.6 µM"}
{"smiles": "O=C(Nc1ccc(C(F)(F)F)cc1)C1CCN(S(=O)(=O)c2ccc(N3CCCC3=O)cc2)CC1", "Potency": "active: 2.59 µM"}
{"smiles": "CCNC(=O)N1CCCC(C(=O)c2ccc(C(F)(F)F)cc2)C1", "note": "(configuration not stated)", "Potency": "inconclusive [inhibitor, partial curve]"}
{"smiles": "COC(=O)[C@]12CCCCC=C1N(CCC1=CCCCC1)C(=O)[C@H](CC(=O)N1CCCCC1)C2", "Potency": "active: 18.4 µM"}
{"smiles": "C[C@H](O)[C@@H]1CN2CCc3c([nH]c4ccccc34)[C@@H]2C[C@@H]1N(C)C(=O)Nc1ccccc1", "Potency": "inconclusive [inhibitor, partial curve]"}
{"smiles": "COc1ccc2c(N)c(C(=O)NN)[nH]c2c1", "Potency": "inconclusive [inhibitor, partial curve]"}
{"smiles": "Cc1cccc(NS(=O)(=O)c2cccc(C(=O)N3CCN(c4ccccn4)CC3)c2)c1", "activity change, negative = growth inhibition": "inactive: -29.8%"}
{"smiles": "COc1ccc(S(=O)(=O)N2CCN(C(=O)c3cc(-c4ccc(Br)cc4)n[nH]3)CC2)cc1OC", "Potency": "active: 10.3 µM and active: 9.2 µM"}
{"smiles": "CCc1cccc2c(C(=O)CN3C(=O)N(C)C4(CCCCC4)C3=O)c[nH]c12", "Potency": "active: 3.26 µM"}
{"smiles": "CC(=O)N1c2ccc(S(=O)(=O)NCC3CCC(C(=O)Nc4cccc(F)c4)CC3)cc2CC1C", "note": "(configuration not stated)", "Potency": "active: 3.26 µM"}
{"smiles": "COC(=O)c1ccc(Oc2nc3c(c(=O)n(C)c(=O)n3C)n2CCC(C)C)cc1", "Potency": "inconclusive [inhibitor, single point]"}
{"smiles": "Cc1ccc(NC(=O)C2CCCN2C(=O)NC2CCCCC2)cc1", "note": "(configuration not stated)", "activity change, negative = growth inhibition": "inactive: 5.38%"}
{"smiles": "c1ccc(CSc2nc3ccccc3[nH]2)cc1", "activity change, negative = growth inhibition": "inactive: -6.56%"}
{"smiles": "O=C(Nc1ccc2c(c1)OCCO2)c1ccccn1", "Potency": "inconclusive [inhibitor, single point]"}
{"smiles": "CCOC(=O)c1[nH]c2ccccc2c1NC(=O)C1CCCCC1", "activity change, negative = growth inhibition": "inactive: -1.36%"}
{"smiles": "COc1ccc(Cn2c(=O)oc3ccccc32)cc1OC", "Potency": "inconclusive [inhibitor, single point]"}
{"smiles": "CCOC(=O)C1C(=O)C=C(c2ccc(C)cc2)CC1c1cccc([N+](=O)[O-])c1", "note": "(configuration not stated)", "Potency": "inconclusive [inhibitor, single point]"}
{"smiles": "COc1ccc(OC)c(NC(=O)CNC(=O)Cn2cnc3sc(C)cc3c2=O)c1", "activity change, negative = growth inhibition": "inactive: 2.06%"}
{"smiles": "COc1ccc2c(c1)c(N=O)c(O)n2C", "Potency": "inconclusive [inhibitor, single point]"}
{"smiles": "Cc1sc2ncnc(SCC(=O)NC(=O)c3cccn3C)c2c1C", "activity change, negative = growth inhibition": "inactive: 0.877%"}
{"smiles": "Cc1csc(C)[n+]1CCC1CCCCC1", "Potency": "inconclusive [inhibitor, single point]"}
{"smiles": "CCOc1ccc(CSC(=N)N)cc1[N+](=O)[O-]", "Potency": "active: 23.1 µM"}
{"smiles": "Cc1ccccc1NC(=O)CN1C(=O)C2C3CC(C(Br)C3Br)C2C1=O", "note": "(configuration not stated)", "Potency": "inconclusive [inhibitor, single point]"}
{"smiles": "CC(CN(C)Cc1ccccc1)OC(=O)c1ccc(F)cc1", "note": "(configuration not stated)", "Potency": "active: 14.6 µM"}
{"smiles": "COc1ccc(NC(=O)c2cc(-c3ccncc3)nc3ccccc23)c(OC)c1", "Potency": "inconclusive [inhibitor, single point]"}
{"smiles": "COc1ccc(N(Cc2ccccc2)C(=O)OC(C)(C)C)c(C(=O)N(C)OC)c1", "Potency": "inconclusive [inhibitor, single point]"}
{"smiles": "O=C(COC(=O)c1ccc(OC(F)F)cc1)NCC1CCCO1", "note": "(configuration not stated)", "activity change, negative = growth inhibition": "inactive: -0.895%"}
{"smiles": "Cc1nc(CN(C)C(=O)CC2C(=O)NCCN2Cc2ccc(F)cc2)cs1", "note": "(configuration not stated)", "activity change, negative = growth inhibition": "inactive: 1.54%"}
{"smiles": "Cc1c(/C(O)=C2\\C(=O)C(=O)N(CCCN(C)C)C2c2cccs2)cnn1-c1ccccc1", "note": "(configuration not stated)", "activity change, negative = growth inhibition": "inactive: 1.13%"}
{"smiles": "O=C(Nc1cccc(S(=O)(=O)N2CCCCCC2)c1)c1cc(=O)c2ccccc2o1", "Potency": "active: 23.1 µM"}
{"smiles": "O=C(Cn1cnc2ccccc2c1=O)Nc1nnc(SCc2ccccc2)s1", "Potency": "inconclusive [inhibitor, single point]"}
{"smiles": "Cc1cccc(C(=O)NC(=S)NNC(=O)COc2ccc(Cl)cc2)c1", "Potency": "inconclusive [inhibitor, single point]"}
{"smiles": "CC(=O)C1=C(c2cccc([N+](=O)[O-])c2)N(C(C)=O)n2c(C)nnc2S1", "Potency": "active: 4.61 µM"}
{"smiles": "Cc1ccc(NC(=S)N/N=C/c2c(Cl)cccc2Cl)c(C)c1", "Potency": "active: 1.3 µM"}
{"smiles": "COc1ccc(C(=O)CNc2ccccc2Br)cc1", "activity change, negative = growth inhibition": "inactive: -8.47%"}
{"smiles": "OCCNc1nc(Nc2ccc(Br)cc2)nc2ccccc12", "Potency": "active: 5.8 µM"}
{"smiles": "COc1ccccc1-c1nnc2n1N=C(c1ccc(O)c(O)c1)CS2", "Potency": "active: 6.51 µM"}
{"smiles": "Cc1ccccc1NC(=S)N1CCOCC1", "activity change, negative = growth inhibition": "inactive: -0.0318%"}
{"smiles": "COc1cc2c(cc1NS(=O)(=O)N1CCCCC1)oc1ccccc12", "Potency": "inconclusive [inhibitor, partial curve, poor fit]"}
{"smiles": "COCCn1c(C)cc(O)c(C(c2ccc(OC)cc2)N2CCCCC2)c1=O", "note": "(configuration not stated)", "activity change, negative = growth inhibition": "inactive: -4.45%"}
{"smiles": "Cc1nc(-c2ccc(S(=O)(=O)N3CCN(c4ccccc4)CC3)cc2)co1", "activity change, negative = growth inhibition": "inactive: -23.3%"}
{"smiles": "CC1CN(C(=O)Nc2ccc(C(=O)NCCc3ccc(Cl)cc3)cc2)c2ccccc2S1", "note": "(configuration not stated)", "activity change, negative = growth inhibition": "inactive: -19.8%"}
{"smiles": "COc1ccc(S(=O)(=O)N2CCC3CC2c2c(-c4ccc(C(F)(F)F)cc4)cccc23)cc1", "note": "(configuration not stated)", "Potency": "active: 4.61 µM"}
{"smiles": "O=C(CSC1=NS(=O)(=O)c2ccccc2N1)Nc1ccccc1F", "activity change, negative = growth inhibition": "inactive: 4.09%"}
{"smiles": "CC(C)c1ccc(N=C2NN=C(c3cccs3)CS2)cc1", "Potency": "inconclusive [inhibitor, single point]"}
{"smiles": "CC(=O)Nc1ccc(S(=O)(=O)Nc2nc3ccccc3nc2Nc2ccc(O)cc2)cc1", "activity change, negative = growth inhibition": "inactive: 3.87%"}
{"smiles": "CCOC(=O)c1[nH]c2c(c1C)C(=O)CC(c1ccco1)C2", "note": "(configuration not stated)", "Potency": "active: 0.58 µM"}
{"smiles": "CSc1nnc(-c2cc(-c3ccc(C)cc3)nc3ccccc23)o1", "activity change, negative = growth inhibition": "inactive: -10.1%"}
{"smiles": "CCOC1=NC(=C(c2ccccc2)c2ccccc2)OC1=O", "activity change, negative = growth inhibition": "inactive: -0.214%"}
{"smiles": "COc1ccccc1-c1noc(CCC(=O)Nc2cccc(C(F)(F)F)c2)n1", "Potency": "inconclusive [inhibitor, single point]"}
{"smiles": "COc1ccc(CN2CCC2(C)C(=O)Nc2cnc3ccccc3c2)c2ccccc12", "note": "(configuration not stated)", "Potency": "inconclusive [inhibitor, single point]"}
{"smiles": "O=C(CN1CCN(Cc2ccccc2Cl)CC1)N=Nc1c(O)[nH]c2ccccc12", "Potency": "inconclusive [inhibitor, single point]"}
{"smiles": "COc1ccc(CN(C)Cc2nc3cc(OC)c(OC)cc3c(=O)[nH]2)c(OC)c1", "Potency": "inconclusive [inhibitor, partial curve]"}
{"smiles": "O=S(=O)(c1ccccc1Cl)N1CCCC1c1nc(-c2ccccc2Cl)no1", "note": "(configuration not stated)", "Potency": "inconclusive [inhibitor, single point]"}
{"smiles": "COC(=O)c1[nH]c2ccc(C)cc2c1NC(=O)CN1CCN(c2ccc(F)cc2)CC1", "Potency": "active: 11.2 µM"}
{"smiles": "CCCC(=O)N1c2ccccc2C(=C2SC(C(=O)OC)=C(C(=O)OC)S2)C(=S)C1(C)C", "Potency": "active: 14.6 µM"}
{"smiles": "C=CCN(c1ccccc1)S(=O)(=O)c1cccc(C(=O)Nc2nc3ccccc3[nH]2)c1", "Potency": "active: 20.6 µM"}
{"smiles": "Cc1ccccc1NC(=O)CSCn1nnc2c(=O)[nH]c(Cc3ccc(F)cc3)nc21", "activity change, negative = growth inhibition": "inactive: -29.5%"}
{"smiles": "CCCCN1CNC(=S)N(CCc2ccc(OCC)c(OCC)c2)C1", "Potency": "inconclusive [inhibitor, single point]"}
{"smiles": "Cc1ccc2c(c1)c1n[nH]c(=S)nc1n2CCc1ccccc1", "Potency": "active: 16.4 µM"}
{"smiles": "COc1ccc(C(C)C)cc1-c1cc(C(=O)NCc2cccc(C(F)(F)F)c2)[nH]n1", "Potency": "inconclusive [inhibitor, single point]"}
{"smiles": "COc1ccc2c3n(nc2c1)CCN=C3c1ccc(Cl)cc1", "activity change, negative = growth inhibition": "inactive: -12%"}
{"smiles": "CC(=O)Oc1cccc2c1C(=O)c1c(OC(C)=O)cc(C(=O)O)cc1C2=O", "Potency": "inconclusive [inhibitor, single point]"}
{"smiles": "COc1ccc(CN2C(=O)c3ccccc3C2=O)cc1", "activity change, negative = growth inhibition": "inactive: 21.7%"}
{"smiles": "COCCCNC(=O)c1ccccc1C(F)(F)F", "Potency": "inconclusive [inhibitor, single point]"}
{"smiles": "COc1ccc(F)cc1-c1cc(NC(C)=O)c2ncc(-c3cc(OC)c(OC)c(OC)c3)n2c1", "Potency": "active: 3.66 µM"}
{"smiles": "CN(C)S(=O)(=O)c1ccc(Cl)c(NC(=O)COC(=O)C2CSC3(C)CCC(=O)N23)c1", "note": "(configuration not stated)", "activity change, negative = growth inhibition": "inactive: 24.6%"}
{"smiles": "COCCNC(=O)[C@H](C)[C@H]1C[C@]1(C)[C@H](NC(=O)OCc1ccccc1)c1ccccc1", "Potency": "inconclusive [inhibitor, single point]"}
{"smiles": "CN(C)c1ccc(NC(=O)CN2CCN(c3ccc(F)cc3)CC2)cc1", "activity change, negative = growth inhibition": "inactive: 0.189%"}
{"smiles": "O=C(CCc1ccc(S(=O)(=O)NCCc2ccccc2)cc1)NCc1ccco1", "activity change, negative = growth inhibition": "inactive: -25.8%"}
{"smiles": "CCOC(=O)c1c(CS(=O)(=O)c2ccccc2)n(C)c2cc(Br)c(O)c(CN(C)C)c12", "Potency": "active: 14.6 µM"}
{"smiles": "Cc1cccc(NC(=O)C(=O)NCC(c2cccnc2)N2CCN(Cc3ccccc3)CC2)c1", "note": "(configuration not stated)", "Potency": "active: 23.1 µM"}
{"smiles": "COc1ccc(CC(=O)Nc2ccc(-c3noc(-c4cc(OC)c(OC)c(OC)c4)n3)cc2)cc1", "Potency": "inconclusive [inhibitor, single point]"}
{"smiles": "COc1ccc(NC(=O)[C@@H](NS(=O)(=O)c2cccc(Cl)c2)C(C)C)cc1S(=O)(=O)N1CCOCC1", "activity change, negative = growth inhibition": "inactive: -0.965%"}
{"smiles": "Cc1ccc(-c2nc(CSCC(=O)NCc3cccnc3)c(C)o2)cc1", "Potency": "inconclusive [inhibitor, single point]"}
{"smiles": "CCOc1ccc(/C(O)=C2/C(=O)C(=O)N(c3ccccn3)C2c2ccc(Cl)cc2)c(C)c1", "note": "(configuration not stated)", "Potency": "inconclusive [inhibitor, single point]"}
{"smiles": "CCCN1Cc2cccc(C(=O)Nc3ccccc3F)c2C1=O", "Potency": "inconclusive [inhibitor, single point]"}
